PubChem BioAssay AID1030 (National Center for Advancing Translational Sciences (NCATS), 2008)
“And” between values parts separate entries of the source, which are not always exact repeats. Identical values can stand only once. Screen size: about 220,000 compounds; about 16,000 (7.3%) were called active. The shares of active, inactive and inconclusive entries below differ from those in the screen. The call rests on the fitted dose curve; in most records, active means well fitted inhibition curve with a large enough effect (not every such curve was filed as active); inconclusive means small, poorly fitted or top-dose-only effect, or another doubt; inactive means no such curve, though single readings can be large or run the other way. Potencies beside an inconclusive call are fits to weak or partial responses and may not hold up.

Target: Aldehyde dehydrogenase 1A1 (Homo sapiens) (UniProt P00352)
Test: qHTS Assay for Inhibitors of Aldehyde Dehydrogenase 1 (ALDH1A1)
Settings: Purified ALDH1A1, NADH fluorescence, propionaldehyde substrate; series mostly up to 75.3 µM
Potency means the concentration at half of the fitted maximal effect; tags describe the fitted curve by direction and shape.

UniProt P00352, sequence (P00352 whole entry, looked up): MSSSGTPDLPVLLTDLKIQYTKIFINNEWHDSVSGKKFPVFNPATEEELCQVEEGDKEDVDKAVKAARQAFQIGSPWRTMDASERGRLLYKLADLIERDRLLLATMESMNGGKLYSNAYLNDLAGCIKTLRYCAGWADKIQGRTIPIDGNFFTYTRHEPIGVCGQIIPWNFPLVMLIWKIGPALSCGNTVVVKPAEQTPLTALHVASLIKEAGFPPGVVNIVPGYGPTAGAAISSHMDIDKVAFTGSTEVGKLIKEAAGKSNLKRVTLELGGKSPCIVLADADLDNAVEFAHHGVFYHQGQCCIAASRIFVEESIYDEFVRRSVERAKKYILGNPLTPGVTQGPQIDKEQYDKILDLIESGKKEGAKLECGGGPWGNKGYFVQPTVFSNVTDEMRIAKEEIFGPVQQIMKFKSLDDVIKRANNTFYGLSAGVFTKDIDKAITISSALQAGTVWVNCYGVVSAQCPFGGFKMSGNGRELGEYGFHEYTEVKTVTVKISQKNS

Potency, active:
Cc1sc2nc(SCC(N)=O)n(-c3ccccc3)c(=O)c2c1C 17.8 µM
CCCN(CC(=O)Nc1ccc(Cl)cc1Cl)C(=O)/C=C/c1ccco1 0.224 µM
CN(C)c1ccc(/C=N/NC(=O)C2COc3ccccc3O2)o1 (configuration not stated) 22.4 µM
COC(=O)c1cc(NCc2cccs2)ccc1N1CCOCC1 17.8 µM
OC(c1ccccc1)C1CN(Cc2ccccc2)CCC1(O)c1ccccc1 (configuration not stated) 20 µM
CCOC(=O)C(CSCC(=O)c1ccc(Cl)cc1)NC(=O)OC(C)(C)C (configuration not stated) 20 µM
CCN(Cc1ccccc1)c1ccc(/C=C(\C#N)c2ccccn2)cc1 14.1 µM
COc1ccc(NC(=O)CN2CCN(CC(=O)Nc3ccccc3F)CC2)cc1OC 22.4 µM
COc1ccccc1C1C(C(=O)c2cc3ccccc3o2)=C(O)C(=O)N1CCN1CCOCC1 (configuration not stated) 20 µM
O=C1C(c2ccccc2)SC(=Nc2ccccc2)N1S(=O)(=O)c1ccccc1 (configuration not stated) 3.16 µM
O=C(O)CCC(=O)N1CCN(c2cccc(Cl)c2)CC1 28.2 µM
Cc1ccc(S(=O)(=O)N(C)C)cc1NC(=O)c1cc(C(C)(C)C)nn1Cc1ccccc1 4.47 µM

Potency, inconclusive:
Cc1c(S(=O)(=O)N2CCN(C(=O)c3ccco3)CC2)c(=O)n(C)c(=O)n1C 28.2 µM [inhibitor, single point]
CCCN1C(=O)/C(=C/c2ccccc2OCc2ccc(C(=O)O)cc2)NC1=S 39.8 µM [inhibitor, single point]
CCC(C)NC(=O)c1cc(Cl)ccc1OC (configuration not stated) 28.2 µM [inhibitor, single point]
COC(=O)CCCC1=CC2=C(c3ccccc3)C(=O)C(C)(OC(=O)C3CCCC3)C(=O)C2=CN1Cc1ccc2c(c1)OCO2 (configuration not stated) 3.55 µM [inhibitor, partial curve]
Cc1cc(C(=O)COC(=O)Cc2n[nH]c(=O)c3ccccc23)c(C)n1-c1ccc2c(c1)OCCO2 17.8 µM [inhibitor, partial curve]
Cc1ccc2nc(-c3ccc(NC(=S)NC4CC(C)(C)NC(C)(C)C4)cc3)sc2c1 39.8 µM [inhibitor, single point]
Cn1c(=O)c2c(SC3CCCC3)nc(C3CC3)nc2n(C)c1=O 4.47 µM [inhibitor, full curve]
CCN(CC)S(=O)(=O)c1ccc(NS(=O)(=O)c2cccs2)cc1 39.8 µM [inhibitor, single point]
O=C(O)c1c2ccccc2cc2ccccc12 25.1 µM [inhibitor, partial curve] and 28.2 µM [inhibitor, partial curve]
COC(=O)c1ccc(NCC(=O)N2CCCCCC2)cc1 25.1 µM [inhibitor, partial curve]
Cc1ccc(NC(=O)CCn2c(=O)[nH]c3ccsc3c2=O)cc1 39.8 µM [inhibitor, single point]
Cc1oc(-c2ccccc2)cc1C(=O)Nc1cccc2ccccc12 12.6 µM [inhibitor, single point]
Cc1ccc2oc(-c3cccc(NC(=S)NC(=O)c4cccs4)c3)nc2c1 28.2 µM [inhibitor, single point]
CC1CCN(S(=O)(=O)c2ccc(C(=O)Nc3ccccc3-c3nc4ccccc4[nH]3)cc2)CC1 39.8 µM [inhibitor, single point]
CCOc1ccc(N(CC(=O)O)S(=O)(=O)c2ccc(F)cc2)cc1 31.6 µM [inhibitor, single point]
CCCCNC(=O)c1sc(=S)n2c1[nH]c(=O)c1ccccc12 28.2 µM [inhibitor, single point]
COc1cc(Cl)c(C)cc1NC(=O)c1cccc(OC)c1OC 1.12 µM [inhibitor, full curve]
CCOC(=O)c1ccc(N2CC(O)=C(c3nc4ccccc4c(=O)[nH]3)C2=N)cc1 25.1 µM [inhibitor, partial curve]
O=C(CSc1nnnn1-c1ccccc1)N1N=CCC1c1ccccc1 (configuration not stated) 25.1 µM [inhibitor, partial curve]
Cc1cccnc1NC(=S)Nc1ccc(Br)cc1Cl 18.9 µM [inhibitor, partial curve, poor fit]
COc1ccc(C2Nc3ccccc3C(=O)N2c2ccc(F)cc2)cc1Cn1nnc2ccccc21 (configuration not stated) 35.5 µM [inhibitor, partial curve]
Cc1ccc(C(=O)NCCSCc2ccc(Cl)cc2Cl)cc1[N+](=O)[O-] 14.1 µM [inhibitor, partial curve]
O=C(C1CCCN(S(=O)(=O)c2ccc(Cl)cc2)C1)N(Cc1cccs1)C1CC1 (configuration not stated) 20 µM [inhibitor, partial curve]
COc1ccc(N=C2C(=Nc3ccc(OC)cc3)N(c3ccc(OC)cc3)C(=S)N2c2ccccc2)cc1 28.2 µM [inhibitor, partial curve, poor fit]
Cc1nc2scc(-c3cccs3)c2c(=O)n1-n1cccc1 25.1 µM [inhibitor, partial curve]
CCOC(=O)c1c(-c2ccncc2)csc1N 20 µM [inhibitor, single point]
CCOC(=O)c1nc2cc3n(c(C)c-2c1C)C(C)C(C)=C3C (configuration not stated) 28.2 µM [inhibitor, partial curve]
Cc1ccccc1-n1nnnc1SCC(N)=O 22.4 µM [inhibitor, single point]
COc1ccc(C(=O)c2cc3cccc(OC)c3o2)cc1 31.6 µM [inhibitor, partial curve]
COc1cc2[nH]c3c(N4CCC(C(N)=O)CC4)ncnc3c2cc1OC 39.8 µM [inhibitor, single point]
Cc1ccn2c(NC3CCCCC3)c(C(C)C)nc2c1 39.8 µM [inhibitor, single point]
O=C(Nc1ccc2c(c1)OCO2)c1cnc2n(c1=O)CCS2 25.1 µM [inhibitor, single point]
CCC(C)Sc1nnc(Cc2cc(=O)[nH]c(=O)[nH]2)n1-c1ccc(F)cc1 (configuration not stated) 39.8 µM [inhibitor, single point]
Cc1cc(=O)oc2ccc(OCC(=O)O)cc12 39.8 µM [inhibitor, single point]
CC(C)(C)c1cc(C(=O)NNC(=O)c2ccc(Cl)cc2)no1 22.4 µM [inhibitor, single point]
CCOC(=O)c1nn(-c2ccc(F)cc2)c2nc(CC(C)C)c(C#N)c(=O)n12 39.8 µM [inhibitor, single point]
O=C(O)CN1C(c2ccccc2)=Nc2ccc(Br)cc2C1c1ccccc1 (configuration not stated) 39.8 µM [inhibitor, single point]
CC(NC(=O)c1cc(-c2ccc3c(c2)OCO3)nc2ccccc12)C(C)(C)C (configuration not stated) 39.8 µM [inhibitor, single point]
CCOC(=O)c1sc(NC(=O)CSc2nncs2)c(C(=O)OCC)c1C 17.8 µM [inhibitor, partial curve]
COC(CNC(=O)CNC(=S)N(Cc1ccccc1)Cc1cccs1)OC 39.8 µM [inhibitor, single point]
CCOC(=O)CC1=NN(c2ccccc2)C(=O)/C1=C\c1ccc(OC)cc1OC 28.2 µM [inhibitor, single point]
Cc1cccc(CNc2ccnc(-c3cccc(NS(C)(=O)=O)c3)n2)c1 8.91 µM [inhibitor, partial curve]
CC1C/C(=N/O)C(C)CN1 (configuration not stated) 39.8 µM [inhibitor, single point]
Cc1ccc(-c2csc(NC(=O)CSc3ncn(-c4ccccc4)n3)n2)cc1 39.8 µM [inhibitor, single point]

Potency, inactive:
O=C(CNC(=O)C1CCCCC1)Nc1cc(Cl)ccc1Cl
COC(=O)CSc1nccc(-c2cccs2)n1
CCc1cc(/C(Cc2ccccn2)=N\O)c(O)cc1O
CC(c1cccs1)N(C)Cc1nc(CCc2ccccc2)no1 (configuration not stated)
Cc1noc(C)c1CSc1ccc2ccccc2n1
Cc1cccc(NC(=S)NC2CCCC2)c1
CCCCn1c(N)c(N(CC)C(=O)c2cccc(OC)c2)c(=O)[nH]c1=O
Cc1ccc(S(=O)(=O)Nc2cc(C(=O)O)ccc2N2CCCCC2)cc1
CCN(CC(F)(F)C(F)F)S(=O)(=O)c1ccc(NC(=O)OC)cc1
CN(Cc1ccco1)c1nc(-c2ccccc2Cl)nc2ccccc12
CCn1c2ccccc2c2nnc(SCC(=O)OCN3C(=O)c4ccccc4C3=O)nc21
Cc1cc(NC(=O)Cn2nc(C)c([N+](=O)[O-])c2C)no1
COC(=O)c1ccc(NC(=S)N2CCN(Cc3cccc(C)c3)CC2)cc1
CCOC(=O)c1ccc(Nc2sc(C(=O)c3cccc([N+](=O)[O-])c3)c(N)c2C#N)cc1
Cc1sc(N/N=C/c2cc([N+](=O)[O-])ccc2O)nc1-c1ccccc1
NC1(C(=O)O)CCc2cc(P(=O)(O)O)ccc21 (configuration not stated)
